This note sets out measurements from the antibiotic and cytotoxicity screens of Wong et al. (2023).

For one assay, the system named is HSkMC. The assay is described as follows: cytotoxicity call (relative viability < 0.9). The following applies: 10 µM.
Another assay deals with HepG2. The assay is described as follows: cytotoxicity call (relative viability < 0.9). The following applies: 10 µM.
The test system of a further assay is S. aureus RN4220. The assay is described as follows: growth inhibition call (relative growth <= 0.2). The conditions noted are these: 50 µM.

The other results are listed elsewhere or left out.

Take `C[C@H](CO)N1C[C@H](C)[C@H](CN(C)Cc2ccc(Cl)c(Cl)c2)Oc2ccc(NC(=O)Cn3cnnn3)cc2C1=O`: the cytotoxicity call in the assay on HSkMC and with HepG2 was “inactive” in each case. Besides, the growth inhibition call in the assay with S. aureus RN4220 is “inactive”.

On to `Cc1noc(C)c1S(=O)(=O)Nc1ccc2c(c1)C(=O)N([C@@H](C)CO)C[C@@H](C)[C@@H](CN(C)S(=O)(=O)c1cn(C)cn1)O2`, for which the cytotoxicity call in the assay on HSkMC and in the assay with HepG2 was “inactive” each time. For the same compound, in the assay with S. aureus RN4220, the growth inhibition call is “inactive”.

On to `C[C@@H]1CN([C@@H](C)CO)C(=O)c2cc(NS(=O)(=O)c3cccs3)ccc2O[C@@H](C)CCCCO[C@@H]1CN(C)Cc1ccc2c(c1)OCO2`, for which the cytotoxicity call in the assay with HSkMC and in the assay on HepG2 was “inactive” in each case. Further, the growth inhibition call with S. aureus RN4220 is “inactive”.

On to `C[C@H](CO)N1C[C@H](C)[C@H](CN(C)Cc2ccc(C(=O)Nc3ccccc3N)cc2)Oc2c(NS(=O)(=O)c3ccc(Cl)cc3)cccc2C1=O`, for which the cytotoxicity call in the assay on HSkMC is “inactive”. Further, the cytotoxicity call in the assay on HepG2 was “active”. The growth inhibition call in the assay on S. aureus RN4220 is “inactive”.

Consider `Cc1noc(C)c1NC(=O)N(C)C[C@H]1Oc2c(NC(=O)c3cnccn3)cccc2C(=O)N([C@H](C)CO)C[C@@H]1C`, for which the cytotoxicity call in the assay on HSkMC and in the assay with HepG2 was “inactive” each time. Also, the growth inhibition call in the assay with S. aureus RN4220 is “inactive”.

Take `CC(=O)OC(CC(=O)O)[N+](C)(C)C.[Cl-]` (centres undefined): the cytotoxicity call in the assay on HSkMC and with HepG2 was “inactive” throughout. In the assay on S. aureus RN4220, the growth inhibition call is “inactive”.

`Cc1ccc(S(=O)(=O)N(C)C[C@H]2OCCCC[C@@H](C)Oc3ccc(NC(=O)Nc4c(C)noc4C)cc3C(=O)N([C@@H](C)CO)C[C@@H]2C)cc1`: the cytotoxicity call in the assay on HSkMC and in the assay on HepG2 was “inactive” in each case. In the assay with S. aureus RN4220, the growth inhibition call is “inactive”.

As for `COc1ccccc1-c1ccc2c(c1)O[C@H](CN(C)C(=O)c1cccnc1)[C@H](C)CN([C@H](C)CO)S2(=O)=O`, the cytotoxicity call in the assay with HSkMC and in the assay on HepG2 was “inactive” each time. Moreover, the growth inhibition call in the assay with S. aureus RN4220 is “inactive”.

For `Cc1noc(C)c1NC(=O)N(C)C[C@@H]1Oc2c(NC(=O)Nc3ccc(C(F)(F)F)cc3)cccc2C(=O)N([C@H](C)CO)C[C@H]1C`, the cytotoxicity call in the assay on HSkMC and in the assay on HepG2 was “inactive” throughout. The growth inhibition call with S. aureus RN4220 is “inactive”.

On to `COc1ccc2c3c([nH]c2c1)[C@H](CO)N(C[C@]13CCN(CC1)CC1CCCCC1)C(=O)Nc1c(noc1C)C`, for which the cytotoxicity call in the assay on HSkMC and in the assay on HepG2 was “inactive” each time. Moreover, the growth inhibition call with S. aureus RN4220 was “inactive”.

For the compound `Cc1c(C(=O)Nc2ccc3ccccc3c2)oc2ccccc12`, the cytotoxicity call with HSkMC is “inactive”. In the assay on HepG2, the cytotoxicity call is “active”. In addition, the growth inhibition call with S. aureus RN4220 is “inactive”.

Take `Cn1c(=O)n2n(c1=O)[C@H](C1CC1)C=C1CN3[C@@H]([C@H](CCn4cc(-c5ccc(C(=O)NO)cc5)nn4)OC(=O)[C@@H]3Cc3ccccc3)[C@@H]12`: the cytotoxicity call in the assay with HSkMC and with HepG2 was “inactive” throughout. The growth inhibition call with S. aureus RN4220 is “inactive”.

Consider `COc1ccc(S(=O)(=O)Nc2ccc3c(c2)CC(=O)N([C@@H](C)CO)C[C@H](C)[C@@H](CN(C)CC2CC2)O3)cc1`, for which the cytotoxicity call in the assay with HSkMC and in the assay with HepG2 was “inactive” in each case. In addition, the growth inhibition call with S. aureus RN4220 was “inactive”.

Turning to `Cc1noc(C)c1S(=O)(=O)N(C)C[C@H]1OCCCC[C@@H](C)Oc2ccc(NC(=O)Nc3ccc(F)cc3)cc2C(=O)N([C@H](C)CO)C[C@@H]1C`, the cytotoxicity call with HSkMC and in the assay with HepG2 was “inactive” each time. Besides, the growth inhibition call in the assay on S. aureus RN4220 is “inactive”.

`C[C@@H]1CCCCO[C@H](CN(C)Cc2ccc(C(F)(F)F)cc2)[C@@H](C)CN([C@H](C)CO)C(=O)c2cc(NS(=O)(=O)c3cccs3)ccc2O1`: the cytotoxicity call in the assay with HSkMC and with HepG2 was “inactive” throughout. Also, the growth inhibition call in the assay on S. aureus RN4220 is “inactive”.

With `C[C@H]1[C@H]2[C@H](Cc3ccccc3)NC(=O)[C@]23C(=O)N[C@H](Cc2ccccc2)C(=O)N2CCC[C@H]2C(=O)NC/C=C\C/C=C/[C@@H]3[C@@H]2O[C@]12C`, the cytotoxicity call in the assay with HSkMC and in the assay on HepG2 was “inactive” in each case. Further, the growth inhibition call in the assay with S. aureus RN4220 was “inactive”.

Consider `COc1ccc(S(=O)(=O)Nc2ccc3c(c2)C(=O)N([C@@H](C)CO)C[C@H](C)[C@H](CN(C)S(C)(=O)=O)OCCCC[C@@H](C)O3)cc1`, for which the cytotoxicity call in the assay with HSkMC and with HepG2 was “inactive” each time. Besides, the growth inhibition call in the assay on S. aureus RN4220 was “inactive”.

As for `C[C@H]1CCCCO[C@@H](CN(C)CC2CCCCC2)[C@@H](C)CN([C@@H](C)CO)C(=O)c2cc(NC(=O)Nc3cccc4ccccc34)ccc2O1`, in the assay on HSkMC, the cytotoxicity call was “inactive”. Besides, the cytotoxicity call in the assay on HepG2 was “active”. The growth inhibition call in the assay with S. aureus RN4220 is “inactive”.

For `C[C@@H]1CN([C@@H](C)CO)C(=O)c2cccc(NS(=O)(=O)c3ccc(F)cc3)c2O[C@H]1CN(C)S(=O)(=O)c1cn(C)cn1`, the cytotoxicity call in the assay on HSkMC and in the assay with HepG2 was “inactive” in each case. Moreover, in the assay on S. aureus RN4220, the growth inhibition call is “inactive”.

Turning to `C[C@H]1CN([C@@H](C)CO)C(=O)c2cc(NC(=O)Cn3cnnn3)ccc2O[C@@H]1CN(C)Cc1ccc(C(=O)O)cc1`, the cytotoxicity call in the assay on HSkMC and in the assay with HepG2 was “inactive” throughout. Further, the growth inhibition call in the assay with S. aureus RN4220 was “inactive”.

In the case of `C[C@H]1CN([C@@H](C)CO)C(=O)c2cccc(NC(=O)C3CC3)c2O[C@H]1CN(C)S(=O)(=O)c1ccc(Cl)cc1`, the cytotoxicity call in the assay with HSkMC and with HepG2 was “inactive” in each case. In addition, in the assay on S. aureus RN4220, the growth inhibition call is “inactive”.

In the case of `CCN(CC)c1ccc2c(-c3ccc(S(=O)(=O)O)cc3S(=O)(=O)O)c3ccc(N(CC)CC)cc3[o+]c2c1`, the cytotoxicity call in the assay on HSkMC (human skeletal muscle cells) and with HepG2 was “inactive” each time. The growth inhibition call in the assay with S. aureus RN4220 was “inactive”.

Turning to `COc1ccc(CN(C)C[C@H]2OCCCC[C@H](C)Oc3ccc(NS(=O)(=O)c4ccc(OC)cc4)cc3C(=O)N([C@H](C)CO)C[C@@H]2C)cc1`, the cytotoxicity call with HSkMC and in the assay with HepG2 was “inactive” throughout. Besides, the growth inhibition call in the assay with S. aureus RN4220 is “inactive”.
